# Assay results: PubChem BioAssay AID1671193 (National Center for Advancing Translational Sciences (NCATS), 2021)
# Screen size: about 150,000 compounds; about 180 (0.12%) were called active. Inconclusive means that the source gave no clear call. Such entries were picked first, then a sample of the others. Calls follow the shape of the dose curve; as a rule, active = well fitted cell-killing curve with a large enough effect; inconclusive = small, poorly fitted or top-dose-only effect, or effect the other way; inactive = flat fitted curve, though single readings scatter. A potency beside an inconclusive call is a rough fit, not a confirmed value.
# Assay: GF-AFC viability counterscreen for inhibitors of alpha-synuclein gene (SNCA) expression; also: nearly all actives have a fitted effect of over 30% in size;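 as to activity change, negative = cytotoxicity: 0% = DMSO-treated cells and -100% = medium-only wells without cells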
# Conditions: HEK-293-SNCA-luc viability, GF-AFC fluorescence, 24 h; activity change, negative = cytotoxicity: at 57.1 µM (top of the series) unless noted
# In short: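 HEK-293-SNCA-luc cells (1500/well) plated 24 h, then exposed 24 h to a dilution series; GF-AFC added 30 min at 37C, fluorescence 405/540 nm; normalised to medium-only and DMSO wells, Hill fit.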
# Potency is read from the fitted curve at half-maximal effect; tags tell the direction and shape of the fitted curve.
SMILES,"activity change, negative = cytotoxicity",Potency
O=C(NC1CCCC1)c1ccc2nnc(-c3cncc(Cl)c3)n2c1,inactive: -4.96%,
C=CCNC(=O)N[C@H]1CCN2C(=O)c3ccc(Cl)cc3NC(=O)[C@@H]2C1,inactive: -14.9% [at 87.6 µM],
CC1=C(CO)C(=O)O[C@@H]([C@@H](C)[C@H]2CC[C@H]3[C@@H]4C[C@H]5O[C@]56[C@@H](O)C=CC(=O)[C@]6(C)[C@H]4CC[C@]23C)C1,,active: 10.3 µM
CCOc1cc(C2C(C(=O)OC)=C(C)NC3=C2C(=O)c2ccccc23)c(Br)cc1O (configuration not stated),,"inconclusive: 12.6 µM [cytotoxic, partial curve]"
c1ccc(CCN2CCNc3cc(Nc4ccc(N5CCOCC5)cc4)ncc3C2)cc1,,"inconclusive: 35.5 µM [cytotoxic, single point]"
COc1ccc(-c2noc([C@@H]3CCCN3C(=O)c3ccc(C)c(C)c3)n2)cc1OC,,"inconclusive: 0.708 µM [cytotoxic, full curve, poor fit]"
COc1ccc(CN(C)C(=O)c2ccc3oc(C)cc3c2)c2cccnc12,,"inconclusive: 15.8 µM [cytotoxic, partial curve, poor fit]"
COc1ccc(-c2ccc3c(c2)C(=O)N2CCN(C(=O)COc4ccccc4)C[C@@H]2C(=O)N3)cc1,inactive: 1.09%,
Cc1nn2c(c1-c1ccccc1[S+](C)(=O)[O-])N(CCC(C)C)CCC2,,"inconclusive: 4.47 µM [cytotoxic, full curve]"
CC(=O)N1CCn2ncc(C(=O)N3CCOCC3)c2C1,,"inconclusive: 8.91 µM [cytotoxic, partial curve, poor fit]"
COc1ccc(S(=O)(=O)Nc2ccc(C)n(CC(=O)N(C)Cc3ccco3)c2=O)cc1,inactive: -22.7%,
CNc1cc(-c2c(C)noc2C)ncn1,,"inconclusive: 31.6 µM [cytotoxic, single point]"
COCC1CN(C)CC12CCN(Cc1cnn(C(C)C)c1)CC2 (configuration not stated),inactive: -6.71%,
Cc1ccc(C)c(N2CCN(CCCNC(=O)c3nnc(Cc4ccc(F)cc4Cl)o3)CC2)c1,,"inconclusive: 39.8 µM [cytotoxic, single point]"
COc1ccc(Nc2ccnc(N3CCCC(C(=O)NCc4ccc(F)cc4)C3)n2)cc1 (configuration not stated),,"inconclusive: 28.2 µM [cytotoxic, partial curve, poor fit]"
CN(C)CCNC(=O)c1nc2nc(-c3ccccc3)c(-c3cccc(Cl)c3)cc2n1C,,"inconclusive: 31.6 µM [cytotoxic, single point]"
COc1cccc(Cn2c(=O)c(C)nc3cnc(OC)nc32)c1,,"inconclusive: 5.62 µM [cytotoxic, partial curve, poor fit]"
CCn1nccc1C(=O)N1CCC2(CC1)CC(N1CCN(CC(C)C)CC1)CCO2 (configuration not stated),,"inconclusive: 6.31 µM [cytotoxic, single point]"
Cc1nn2c(c1-c1ccccc1Oc1ccccc1)N(C(=O)C1CCC1)CCC2,inactive: -15.6% [at 87.6 µM],
O=C(Cc1cccc(F)c1)N1CCC2(CCC2N2CCOCC2)CC1 (configuration not stated),inactive: 18.3%,
COc1cccc(NC(=O)Cn2c(N3CCc4ccccc4C3)nc(C)cc2=O)c1,,"inconclusive: 39.8 µM [cytotoxic, single point]"

SMILES,"activity change, negative = cytotoxicity",Potency
COCC(=O)Nc1ccc(-c2c(-c3cccc(OC)c3)nn(-c3ccccc3)c2OC(C)=O)cc1,inactive: -15.5%,
CC(C)CCNC(=O)Nc1cc(C(=O)NCc2cccc(F)c2)ccc1N1CCCC1,,"inconclusive: 15.8 µM [cytotoxic, partial curve, poor fit]"
O=C(Nc1n[nH]c(Cc2ccccc2)n1)N1CCN(C(=O)c2ccco2)CC1,inactive: -11.5%,
CN(C)c1ncc2nc(-c3ccc(Cl)cc3)c(=O)n(Cc3cccs3)c2n1,,"inconclusive: 10 µM [rising, partial curve]"
Fc1ccc(-c2cnc3n[nH]c(-c4ccccc4)c3n2)cc1,inactive: -7.13% [at 87.6 µM],
CCN(CC)CCNC(=O)c1ccc2c(=O)n3nc(Nc4ccccc4)sc3nc2c1,,"inconclusive: 31.6 µM [cytotoxic, partial curve, poor fit]"
CN1CCN(c2ccnc(-c3ccc(N(C)C)cc3)n2)CC1,inactive: -5.29%,
O=C(COc1ccc(F)cc1)NC1CCN(c2cc(-c3ccccc3)[nH]n2)CC1,inactive: 1.28%,
COCCNC(=O)CCCN1C(=O)COc2ccc(C(=O)COc3cc(C)cc(C)c3)cc21,,"inconclusive: 8.91 µM [cytotoxic, partial curve, poor fit]"
COc1ccc(CCNC(=O)CCn2c(=O)c3ccccc3n(Cc3ccccc3C)c2=O)cc1OC,,"inconclusive: 2.51 µM [cytotoxic, single point]"
COc1ccc(CCNc2nc3c(c(=O)n(C)c(=O)n3C)n2Cc2ccccc2Cl)cc1OC,,"inconclusive: 17.8 µM [rising, single point]"
O=c1cc(-c2cccnc2)oc2c(-c3ccccc3Oc3ccccc3)nccc12,,"inconclusive: 10 µM [cytotoxic, partial curve, poor fit]"
Cc1ccccc1C(=O)N1CCN(C(=O)c2cccc(-c3ccccn3)c2)CC1,inactive: -0.402% [at 12.5 µM],
COc1ccc(-c2nc3c(c(-c4ccccc4)n2)CN(C(=O)c2ccc(F)cc2)CC3)cc1,,"inconclusive: 35.5 µM [cytotoxic, partial curve, poor fit]"
CCOC(=O)CNC(=O)N1CC2(CCCCC2)CC1COc1ccc(OC)cc1 (configuration not stated),inactive: -1.37%,
Cc1cccc(C(=O)Nc2ccc(S(=O)(=O)N3CCCCC3c3cccnc3)cc2)c1 (configuration not stated),,"inconclusive: 15.8 µM [cytotoxic, partial curve, poor fit]"
Cc1ccc(-n2ncc3c(N4CCN(Cc5ccccc5)CC4)ncnc32)cc1,inactive: 5.53%,
COCc1ncc(C)n1CCNC(=O)c1cc(-c2cccc(Cl)c2)n[nH]1,inactive: 1.14%,
CN(C(=O)[C@@H]1C[C@@H](c2ccc(F)cc2)N([S+](=O)([O-])c2ccccc2)C1)c1ccccc1,,"inconclusive: 28.2 µM [cytotoxic, partial curve]"
C[C@H]1[C@@H]2[C@@H](O)C([C@H](C)C(=O)NCc3ccc(F)cc3)CC[C@@]2(C)CC[C@@H]1NC(=O)Cc1ccccc1 (some centres not stated),inactive: -4.15%,
Cc1occc1C(=O)n1ccnc1,,"inconclusive: 6.7 µM [rising, single point]"

SMILES,"activity change, negative = cytotoxicity",Potency
COc1ccc(-n2c(=O)c(-c3ccc(Cl)cc3)nc3cnc(N4CCNCC4)nc32)cc1,,"inconclusive: 11.2 µM [rising, partial curve, poor fit]"
Cc1ccc(-c2nnn3c2nc(NCc2ccc4c(c2)OCO4)c2ccccc23)cc1,,"inconclusive: 31.6 µM [rising, single point]"
Cc1ccc(NC(=O)N2Cc3[nH]cnc3C[C@H]2c2nc(-c3ccc(Cl)cc3)no2)cc1,,"inconclusive: 12.6 µM [cytotoxic, partial curve]"
CN(C)c1cccc(Nc2cc3c(cn2)CN(Cc2ccccc2)CCN3)c1,,"inconclusive: 5.62 µM [cytotoxic, partial curve, poor fit]"
COc1ccc(CNC(=O)c2ccc(-c3nc(CS(=O)c4ccc(C)cc4)c(C)o3)cc2)cc1 (configuration not stated),,"inconclusive: 8.91 µM [rising, partial curve, poor fit]"
COc1ccc(-c2ccc3nnc(CNC(=O)c4ccc(F)c(Cl)c4)n3n2)cc1,inactive: 12.8%,
Cn1c(Cn2cccn2)nnc1C1CCCN(C(=O)CCn2cnnn2)C1 (configuration not stated),,"inconclusive: 31.6 µM [rising, single point]"
Cc1nn2c(c1-c1ccccc1C(N)=O)N(C(=O)Cc1cccc(F)c1)CCC2,inactive: -0.523% [at 87.6 µM],
Cc1sc2ncn(CC(=O)N3CCN(c4ccc(F)cc4)CC3)c(=O)c2c1S(=O)(=O)N1CCN(c2ncccn2)CC1,,"inconclusive: 20 µM [cytotoxic, partial curve]"
Cc1ccc(O)c(-c2n[nH]c3c2C(c2ccccc2F)N(Cc2ccco2)C3=O)c1 (configuration not stated),,"inconclusive: 39.8 µM [cytotoxic, single point]"
O=C(Nc1cccc(-c2ccc(N3CCOCC3)nn2)c1)Nc1cccc(C(F)(F)F)c1,,"inconclusive: 39.8 µM [cytotoxic, single point]"
COCCNC(=O)C1COC2(CCN(C(=O)c3ccccc3F)CC2)N1C(=O)c1ccco1 (configuration not stated),inactive: -16.4%,
CC1CCC2(NC1)OC1CC3C4CC=C5CC(O[C@@H]6O[C@H](CO)[C@@H](O[C@@H]7O[C@@H](C)[C@H](O)[C@@H](O)[C@H]7O)[C@H](O)[C@H]6O[C@@H]6O[C@@H](C)[C@H](O)[C@@H](O)[C@H]6O)CCC5(C)C4CCC3(C)C1C2C (some centres not stated),,"inconclusive: 5.05 µM [cytotoxic, single point]"
COc1ccc(-c2cc(-c3ccc4c(c3)C(=O)NC4)cn3cncc23)cc1,,"inconclusive: 7.08 µM [cytotoxic, full curve, poor fit]"
CC(c1nccs1)N(C)C(=O)c1csc2nc(-c3ccccc3Cl)cn12 (configuration not stated),,"inconclusive: 35.5 µM [cytotoxic, single point]"
Oc1ccccc1CNC1(Cc2cc(-c3ccccc3)on2)COC1,inactive: 1.66% [at 87.6 µM],
O=C1Nc2nc(-c3c(O)cccc3OCC3CC3)cc([C@@H]3CCCNC3)c2CO1,,"inconclusive: 26.7 µM [cytotoxic, single point]"
O=c1n(-c2ccncc2)nc2n1CCN(Cc1ccc(C(F)(F)F)cc1)C2,inactive: -12%,
COc1ccc(-c2cn3c(n2)CO[C@@H](CNC(=O)c2ccccc2OC)C3)cc1,,"inconclusive: 28.2 µM [cytotoxic, partial curve]"
Cc1nn(-c2ccc(C(C)C)cc2)c(C)c1[C@@H]1C=C[C@@H](NC(=O)Nc2ccccc2)C1,,"inconclusive: 56.2 µM [cytotoxic, single point]"
